# Assay results reported in PMC4336329 (PLoS ONE, 2015).
# About 2,200 (0.71%) of roughly 310,000 compounds showed an effect of 50% or more. The effect is printed as a negative number. Some of the results follow.
# Molecular target: human ether-à-go-go-related gene (hERG) potassium channel (human, UniProt Q12809)
# Assay: primary screen, population patch clamp on CHO cells stably expressing hERG
# human ether-à-go-go-related gene (hERG) potassium channel, sequence (Q12809 whole entry, looked up): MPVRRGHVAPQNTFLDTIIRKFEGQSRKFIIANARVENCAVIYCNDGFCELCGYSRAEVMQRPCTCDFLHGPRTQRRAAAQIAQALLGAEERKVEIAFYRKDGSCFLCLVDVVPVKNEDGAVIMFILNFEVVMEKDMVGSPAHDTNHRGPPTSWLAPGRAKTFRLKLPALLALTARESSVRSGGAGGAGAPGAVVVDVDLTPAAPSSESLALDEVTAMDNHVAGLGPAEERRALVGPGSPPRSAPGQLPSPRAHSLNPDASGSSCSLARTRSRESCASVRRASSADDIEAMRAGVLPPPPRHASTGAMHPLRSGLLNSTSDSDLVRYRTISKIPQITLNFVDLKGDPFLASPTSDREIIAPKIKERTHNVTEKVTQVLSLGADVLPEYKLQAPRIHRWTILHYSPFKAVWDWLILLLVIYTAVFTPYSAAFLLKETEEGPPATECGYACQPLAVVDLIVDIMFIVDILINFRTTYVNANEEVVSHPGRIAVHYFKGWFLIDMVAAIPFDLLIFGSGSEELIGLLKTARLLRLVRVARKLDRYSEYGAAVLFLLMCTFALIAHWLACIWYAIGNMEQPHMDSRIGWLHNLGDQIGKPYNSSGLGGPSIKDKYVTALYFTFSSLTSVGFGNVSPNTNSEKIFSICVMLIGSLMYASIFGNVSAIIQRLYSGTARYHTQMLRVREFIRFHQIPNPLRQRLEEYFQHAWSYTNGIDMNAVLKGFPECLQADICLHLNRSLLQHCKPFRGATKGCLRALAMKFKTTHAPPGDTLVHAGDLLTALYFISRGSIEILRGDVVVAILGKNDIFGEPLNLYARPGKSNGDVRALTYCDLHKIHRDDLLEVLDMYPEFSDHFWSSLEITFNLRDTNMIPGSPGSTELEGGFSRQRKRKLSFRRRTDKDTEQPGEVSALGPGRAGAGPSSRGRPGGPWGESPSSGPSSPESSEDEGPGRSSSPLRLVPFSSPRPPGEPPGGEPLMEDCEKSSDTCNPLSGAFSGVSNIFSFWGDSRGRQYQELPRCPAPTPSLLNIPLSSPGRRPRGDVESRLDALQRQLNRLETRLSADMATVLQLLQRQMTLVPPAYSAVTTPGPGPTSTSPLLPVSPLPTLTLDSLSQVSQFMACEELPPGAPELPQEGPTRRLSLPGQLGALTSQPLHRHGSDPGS
row,Structure (SMILES),"hERG current change (%, negative = inhibition) at 1uM [%]"
1,O=C(NCCCNC(=O)c1ccccn1)c1ccccn1,15
2,O=C1CC(=O)C(n2cncn2)C(c2ccc(Cl)cc2)C1 (stereo not drawn),19.3
3,CCN(C(=O)c1ccc2c(=O)n3c(nc2c1)CCCCC3)c1cc(OC)ccc1OC,8.16
4,Cn1c(NC(=O)C2CC2)cc(=O)n(C)c1=O,-5.09
5,O=C(CCCN=C1NS(=O)(=O)c2ccccc21)OCC(=O)c1ccc(F)c(F)c1,0.785
6,O=C(NCc1ccco1)c1cc(C(=O)C2CC2)c[nH]1,0.933
7,CCOC(=O)c1c(S(=O)(=O)NCC(=O)Nc2ccccc2)c(C)n(C)c1C,4.9
8,CC(C)c1cc(C(=O)NNC(=S)NCc2ccco2)c(O)c(C(C)C)c1,9.95
9,CCOc1cc(-c2c(C#N)c(N)nc3c2CCc2ccccc2-3)ccc1O,10.9
10,O=C(O)CCC(=O)Nc1ccc(NC(=O)c2ccc(Cl)cc2Cl)c(Cl)c1,18
11,COc1ccc2sc3c(=O)[nH]c4ccccc4c3c2c1,0.177
12,Cn1c(CO)cnc1SCc1ccc(Cl)cc1,7.21
13,O=C1CCCN1c1ccc(CNS(=O)(=O)c2ccc(F)cc2)cc1,12.4
14,COc1ccc(OCC(=O)N/N=C(\CCC(=O)O)c2cccs2)cc1,9.88
15,N#CCC(=O)N/N=C\c1ccccc1OC/C=C/c1ccccc1,13.3
16,COc1ccc(OC)c(/C=C/C(=O)OCC(=O)Nc2ccc(Cl)c(S(=O)(=O)N(C)C)c2)c1,14.4
17,Cc1ccc(/C=C2\CCC(C3CCCC3)C2=O)cc1 (stereo not drawn),-1.26
18,FC(F)(F)c1ccc2c(c1)NP(=S)(N1CCOCC1)c1nccn1-2 (stereo not drawn),6.98
19,CCOc1ccc(N(C)S(=O)(=O)c2cc(-c3cc(C)no3)ccc2C(C)C)cc1,3.37
20,CCC(=NCCc1c(C)[nH]c2ccc(OC(F)(F)F)cc12)C1=C(O)CC(c2ccccc2)CC1=O (stereo not drawn),8.44
21,CCOC(=O)CCCc1ccc(/C(C)=N/NC(N)=S)cc1,9.82
22,Cc1cc(NC(=O)CSc2nc3c(C)c(C)ccc3cc2C)no1,-18
23,Cc1cccc(NC(=O)CN(C)C(=O)C2CCCC2)c1C,12.6

row,Structure (SMILES),"hERG current change (%, negative = inhibition) at 1uM [%]"
1,CC1CN(S(=O)(=O)c2ccccc2)C(C)N1C(=O)N1CCOCC1 (stereo not drawn),11.6
2,NC(=O)CC(NC(=O)c1cccc(Br)c1)c1ccc(NC2CCN(Cc3ccccc3)CC2)c([N+](=O)[O-])c1 (stereo not drawn),19.1
3,CC(C)=Cc1oc2ccc([N+](=O)[O-])cc2c1N1CCOCC1,2.82
4,CSCCC(NC(=O)c1ccc([N+](=O)[O-])cc1Cl)C(=O)OCC(=O)NC1CCCC(C)C1C (stereo not drawn),-10.9
5,CCOc1ccc(NC(=S)NC(C)C(c2ccccc2)N2CCN(C)CC2)cc1 (stereo not drawn),3.99
6,Cc1cc(NC(=O)CSc2ccc(-c3ccc(Br)cc3)nn2)no1,8.41
7,COc1ccc(CCN(C)C(=O)c2cnc(C)cn2)cc1OC,7.46
8,Cc1cccc(C(c2c(C)nn(-c3ccccc3)c2N)c2c(C)nn(-c3ccccc3)c2N)c1,-3.5
9,C=CCNc1c2c(nc3ncnn13)CC(C)CC2 (stereo not drawn),8.4
10,CC1CC(C)CN(C(=O)COC(=O)c2ccc3ccccc3n2)C1 (stereo not drawn),13.7
11,Cc1cccc(NC(=O)CSc2nnc(-c3ccncc3)n2C)c1,-8.36
12,S=C(NCc1ccccc1)NN1CCOCC1,12.1
13,C/C(=N\NC(=S)Nc1ccccc1)c1c(O)n(C)c(=O)n(C)c1=O,12.8
14,N#Cc1c2n(c3c(=O)n(Cc4ccc(Cl)cc4)cnc13)CCCC2,-11.9
15,CCOCCCNc1nc(=S)[nH]c2cc(OC)c(OC)cc12,-2
16,CCOC(=O)C1CCN(c2ccc([N+](=O)[O-])cc2)CC1,-23.5
17,Cc1nc2ccccc2c(=O)n1/N=C/c1ccccc1OC(F)F,13.1
18,O=C(O)C(F)(F)S(=O)(=O)O,13.1
19,CCCCCCCc1nc2c(=O)n(C)c3ccccc3c2o1,9.76
20,COc1cc(NC(=O)CSc2ccc3c(c2)OCCO3)cc(OC)c1OC,11.3
21,Cc1occc1C(=O)N1CCCC(CCC(=O)NCc2ccc(F)c(F)c2)C1 (stereo not drawn),9.2
22,C(=N\N1CCOCC1)/c1nc(-c2ccccc2)n2ccccc12,0.84
23,O=C(NNC(=O)C1CC=CCC1)c1ccccc1O (stereo not drawn),9.37

row,Structure (SMILES),"hERG current change (%, negative = inhibition) at 1uM [%]"
1,COc1ccc(NC(=O)C2CC(=O)N(c3ccccc3Cl)C2)c(OC)c1 (stereo not drawn),13.2
2,N=C1C(c2ccccc2)=C(O)CN1c1cccc(S(N)(=O)=O)c1,11.8
3,COc1cc2c(cc1OC)CN(CC(=O)Nc1ccccc1C(=O)NC1CC1)CC2,-6.04
4,CN1CCN(c2ccc(CNS(=O)(=O)c3cccc(F)c3)cc2)CC1,13.7
5,CCOC(=O)C1CCN(c2ccc(C(N)=O)cc2[N+](=O)[O-])CC1,9.09
6,O=C(Nc1nccs1)C1CCCN1/C=C/C(=O)C(F)(F)F (stereo not drawn),17.1
7,CCn1c(SCC(N)=O)nnc1-c1ccc2c(c1)OCO2,5.65
8,OCC1(Cc2cccc(C(F)(F)F)c2)CCN(Cc2cc(F)cc(F)c2)CC1,4.2
9,CCc1ccc(Nc2nnc(SCC(=O)c3c(N)n(C4CC4)c(=O)[nH]c3=O)s2)cc1,-7.87
10,COc1cc(NC(=O)c2cc3ccccc3cc2O)c(OC)cc1Cl,24.4
11,CC1CN(Cc2cc(=O)[nH]c(C(C)C)n2)CC(C)O1 (stereo not drawn),14.8
12,CCc1nc2ccccc2c(C(=O)OCC(=O)Nc2cccc(S(=O)(=O)NC3=NCCCCC3)c2)c1C,10.3
13,CC(C)=C1C2CCC1C(C(=O)Nc1sc(C)c(-c3ccc(C(C)C)cc3)c1C(N)=O)C2C(=O)O (stereo not drawn),1.88
14,O=C1C2C3C=CC(C4CC34)C2C(=O)N1c1ccc2c(c1)OCO2 (stereo not drawn),16.7
15,CC1CC(C)CN(C(=O)c2ccc3ccccc3c2)C1 (stereo not drawn),1.55
16,O=S(=O)(Nc1ccc2c(c1)OCCO2)c1cccc(F)c1,13.4
17,COc1ccc(NC(C)=O)cc1NC(=O)CSc1nnc(-c2ccncc2)n1C,16.6
18,Cc1oc(-c2ccc(Cl)cc2)nc1CS(=O)CC(=O)NCCCN1CC(C)CC(C)C1 (stereo not drawn),-34.2
19,COc1cnc(-c2ccccc2)nc1Oc1ccccc1C,-6.15
20,COc1ccc(OC)c(-c2nc(C(=O)NCC3CCCO3)cc3c2[nH]c2ccccc23)c1 (stereo not drawn),-11.4
21,CCOC(=O)NC(=O)/C(C#N)=N/Nc1ccc(F)cc1,-1.11
22,CC(O)c1cccc(NC2=CC(=O)CC(C)(C)C2)c1 (stereo not drawn),3.49
23,Cc1c(NC(=O)c2cnn3c2NC(c2ccco2)CC3C(F)(F)F)c(=O)n(-c2ccccc2)n1C (stereo not drawn),5.11

row,Structure (SMILES),"hERG current change (%, negative = inhibition) at 1uM [%]"
1,COc1cc2c(cc1OC)CN(C(=O)C1CCC(=O)N(CCCN3CCOCC3)C1)CC2 (stereo not drawn),14.4
2,O=C(Nc1ccccc1)N(CCCN1CCOCC1)Cc1cccs1,-29.2
3,Cc1cccc(-c2nc(CS(=O)CC(=O)NCc3cccs3)c(C)o2)c1 (stereo not drawn),1.55
4,CC1CCCC(C(=O)O)N1C(=O)CCS (stereo not drawn),-6.86
5,CC(=O)Nc1ccc(-c2nc3ccc(NC(C)=O)cc3o2)cc1,16.1
6,Cc1ccc(NC(=S)Nc2ccc(S(=O)(=O)Nc3ncccn3)cc2)cc1Cl,11.2
7,Cc1ccccc1C(=O)NC1CCN(C(=O)N(c2ccccc2)c2ccccc2)CC1,5.04
8,CC(C)(C)C(=O)COC(=O)c1cc(S(=O)(=O)N2CCCCC2)ccc1N1CCOCC1,1.17
9,CCOC(=O)CN=C/C(C(C)=O)=C(/C)O,17.4
10,Cc1cc(Cl)ccc1OC(C)c1nnc(N)s1 (stereo not drawn),5.15
11,O=c1c(Cc2c(F)cccc2Cl)c(O)ccn1CCc1c[nH]c2ccccc12,6.54
12,Nc1ccc(Cl)c(S(=O)(=O)Nc2ccccc2Cl)c1,8.84
13,COC(=O)CN1CC(=O)N(c2ccccc2)C1=S,13
14,CC(C)CC(C(=O)N1CCc2ccccc2C1)N1C(=O)c2ccccc2C1=O (stereo not drawn),7.47
15,COc1cccc(C(=O)COC(=O)C2CC3CCCC(C2)C3=O)c1 (stereo not drawn),12
16,Cc1nnc(NC(=O)C2CSC3(C)CCC(=O)N23)s1 (stereo not drawn),11.9
17,O=C(COC(=O)c1ccccn1)c1cccc(Br)c1,9.34
18,Cc1ccc(NS(=O)(=O)c2c(C)nc3sccn3c2=O)c(C)c1,-8.71
19,COC(=O)c1ccccc1NC(=S)NC(=O)C1CC1,-17.2
20,N#Cc1ccc(N/N=C/c2ccccc2)c([N+](=O)[O-])c1,6.08
21,O=C(NCc1cc([N+](=O)[O-])ccc1O)c1cccnc1Sc1ccc(Cl)cc1,16.3
